Experimental data published in PubChem BioAssay AID2060609 (Molecular Pharmacology Branch, DTP, NCI, 2025).
A number of entries come with more than one value. Only these are listed. There may be further records. Values that stand side by side repeat one measurement in other runs, samples, wells, individuals or studies. Brackets with × give the number of equal values in this list.

Test system: 855422-203-R-J1-PDC complex spheroids, viability
Assay: Anticancer human tumor 855422-203-R-J1-PDC patient-derived bladder carcinoma cell line growth inhibition [CLK]
Details: stronger effect = lower value
Description: A high-throughput screen of multi-cell type tumor spheroids was designed to identify active combinations of […] and targeted small molecules. Complex spheroids include a stromal component modeled by human endothelial cells (HUVEC) and fibroblasts modeled by human mesenchymal stem cells (MSCs). The concentration ranges selected for each drug and investigational agent were based upon clinically achievable concentrations if the clinical Cmax of the agent was known.
Compounds. The drugs and investigational agents: cirtuvivint (SM08502; NSC835563), CC-671 (NSC850746), vemurafenib (NSC761431), tapotoclax (NSC804041), sotorasib (NSC818433), adagrasib (NSC831453), MRTX-1133 (NSC836407), BAY2416964 (NSC825713), copanlisib (NSC816437), inavolisib (NSC800729), abemaciclib (NSC768073), osimertinib (NSC779217), entinostat (NSC756642), eltanexor (KPT-8602, NSC794443), venetoclax (NSC766270), ceralasertib (NSC777638), bortezomib (NSC756655), olaparib (NSC753686), talazoparib (NSC767125), alisertib (NSC759677), peposertib (NSC802822), gemcitabine (NSC613327), 5-fluorouracil (NSC19893), SN-38 (NSC673596), oxaliplatin (NSC266046), paclitaxel (NSC125973), and doxorubicin (NSC123127), were obtained from the National Cancer Institute (NCI) Developmental Therapeutics Program Chemical Repository. The FDA-approved anticancer drug set is available from the Developmental Therapeutics Program at https://dtp.cancer.gov/organization/dscb/obtaining/available plates.htm. […] The stock solutions were prepared in dimethyl sulfoxide (DMSO, Sigma-Aldrich, St. Louis, MO, cat. D2650), except for the platinum complexes which were prepared in saline (Quality Biological, Gaithersburg, MD, cat. 114-055-101), at 800-fold the tested concentration and stored at -70 degrees C prior to their use. All drugs and investigational agents were tested over a range starting from a high concentration at or near the clinical Cmax and decreasing in half-log increments. If the clinical Cmax for an agent had not been determined, the highest concentration tested was 10 microM.
Cell Culture. […]
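Further: spheroids exposed to drugs for seven days before readout; 100% = DMSO vehicle control wells.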

| Compound | viability, T/C (compound alone 0.0316 µM) | viability, T/C (compound alone 0.1 µM) |
| --- | --- | --- |
| CN1CCN(c2cc(C(=O)Nc3cc4cc(-c5cnn(C)c5)ccc4cn3)ccn2)CC1 | 105 (2×), 107, 113, 91.1, 98.2, 106, 103, 95, 104, 120, 109% | – |
| CNC(=O)c1ccc(Nc2nc(OC3CCCC3)c3c(-c4ccc5nc(C)oc5c4)c[nH]c3n2)c(OC)c1 | 115, 108, 104, 145, 116 (2×), 93.8, 132, 127, 98.5, 97.8, 94.2% | 42.2, 45.6, 69.1, 71, 60.1, 62.8, 70.9, 62.4, 51.4, 62.6, 56% |
